About 540 (0.36%) of roughly 150,000 compounds showed an effect of 50% or more. Some of the results follow.

Broadly, the % Inhibition is the relative decrease from the control value, in per cent.

The assay concerns Plasmodium falciparum. The assay is described as follows: Primary screen in NF54 nanoGlo assay, in single point, at 2uM, 72h; a lower Z score goes with more inhibition. The note with it: timepoint 72 hour. Format: functional, Erythrocyte.
On to `O=C(c1cccnc1)N1CC[C@@]2(CCCN(CCc3ccccc3)C2)C1`, for which the “% Inhibition” value is -17% and the Z score was 3.27.
`C[C@@H](Cc1cccnc1)n1ccnc1-c1cccnc1`: the “% Inhibition” value is on record as -5% and the Z score came out at 0.56.
`COc1ccc(-c2cc(C(=O)N(CC3CCC3)C[C@H]3CCCO3)n[nH]2)cc1`: the “% Inhibition” value was -24% and the Z score was 2.53.
Consider `Cc1nc(CNC(=O)c2cn(C)c(C)cc2=O)sc1C`, for which the “% Inhibition” value is -7% and the Z score is given as 1.28.
In the case of `O=C(Nc1cccs1)O[C@H]1COCCN(c2nc3ccccc3s2)C1`, the “% Inhibition” value is given as -7% and the Z score is on record as 0.9.
Consider `O=C(Nc1ccccc1)C(Nc1ccccc1)(c1ccccc1)c1ccccc1`, for which the “% Inhibition” value is 7% and the Z score is recorded as -1.15.
With `O=C(O)C1=CCC(NC(=O)C(O)C2CCCCCCC2)C1` (stereo not given), the “% Inhibition” value was -19% and the Z score amounted to 2.4.
Turning to `Cc1cc(NC(=O)N(CCO)C(C)C)ccn1`, the “% Inhibition” value is -2% and the Z score is on record as 0.27.
Regarding `CC(C)c1ccc(NC(=O)Cn2nc3c(N4CCC[C@H](C)C4)nccn3c2=O)cc1`, the “% Inhibition” value is recorded as -11% and the Z score amounted to 1.75.
Take `C[C@H]1CC(=O)Nc2ccccc2N1C(=O)CN1CCN(S(=O)(=O)c2cccs2)CC1`: the “% Inhibition” value was -7% and the Z score is reported as 0.93.
Consider `CN1C[C@@H](C(=O)N2CCc3ccccc32)CC1=O`, for which the “% Inhibition” value is on record as -19% and the Z score is 1.76.
Consider `COc1cccc(C(=O)N2c3ccccc3[C@](C)(c3ccccc3)CC2(C)C)c1`, for which the “% Inhibition” value is given as 2% and the Z score is -0.21.
For `CCOc1ccc(-c2cc3c(=O)n(CCC(=O)NCc4ccccc4OCC)ccn3n2)cc1`, in that order: 3% and -0.39.
With `CCCCN(C)S(=O)(=O)NC[C@@H](c1ccco1)N(C)C`, the “% Inhibition” value amounted to 5% and the Z score is given as -0.65.
Turning to `COc1cc(CNCc2ccccn2)ccc1OCc1cccc(C)c1`, the “% Inhibition” value is given as -1% and the Z score was found to be 0.26.
For `CCCN(Cc1cc(-c2ccccc2)on1)C(=O)c1cccs1`, the “% Inhibition” value is -7% and the Z score amounted to 1.3.
Turning to `O=C(NC1CCCCCCC1)c1cc[n+]([O-])cc1`, the “% Inhibition” value amounted to 6% and the Z score is given as -0.67.
With `Cc1c(NC(=O)NCc2cc(C#N)ccc2F)ccc(F)c1N1CCNC1=O`, the “% Inhibition” value is on record as -4% and the Z score was 0.61.
For the molecule `CCCc1ncc(C(=O)Nc2ccc(CN(C(C)=O)C3CC3)cc2)s1`, the “% Inhibition” value is recorded as -9% and the Z score was 1.27.
As for `CCOc1cccc(OCC#CCN2CCN(C)CC2)c1`, the “% Inhibition” value is recorded as -22% and the Z score is reported as 2.39.
For `O=C(NCc1ccc(F)cc1F)[C@H]1CCCN(Cc2ccco2)C1`, in that order: 1% and -0.2.
Turning to `Cc1ccc(F)c(C(=O)N[C@@H]2COCC[C@@H]2OCC2CC2)c1F`, the “% Inhibition” value is on record as -9% and the Z score is 1.7.
As for `CCCNC(=O)NC(=O)COc1c(C)cc(Br)cc1Cl`, the “% Inhibition” value is listed as -19% and the Z score was found to be 3.73.
As for `Cc1ccc(NC2COCCOC2)c(OC[C@H]2CCCO2)c1`, the “% Inhibition” value stood at 2% and the Z score is -0.44.
`CCCC(=O)N(Cc1ccccc1)c1nc2c(OC)ccc(C)c2s1`: the “% Inhibition” value came to 0% and the Z score worked out at 0.04.
Take `O=C(Nc1ccccc1F)c1oc2ccccc2c1NC(=O)C1CCCC1`: the “% Inhibition” value is listed as -3% and the Z score came out at 0.54.
In the case of `O=C(NCCc1cc(C(F)(F)F)ccn1)[C@H]1[C@@H]2CCCO[C@@H]21`, the “% Inhibition” value worked out at 0% and the Z score is on record as -0.05.
Take `O=C(CCC1CCCC1)Nc1nc[nH]n1`: the “% Inhibition” value was -8% and the Z score was found to be 1.03.
In the case of `Cc1ccc(CC(=O)N2CC3(C[C@H](N4CCCC4)CO3)C2)cc1`, the “% Inhibition” value is given as -6% and the Z score was found to be 0.94.
As to `O=S(=O)(Cc1ccccc1)N1CCN2CCOC[C@@H]2C1`, the “% Inhibition” value was found to be 7% and the Z score is -1.41.
The matching figures for `CN(CC(=O)N[C@](C)(C#N)C1CC1)C1CCCCCC1`: -2% and 0.29.
Turning to `CN1CCO[C@@H](CNc2cc(C(N)=O)ccn2)C1`, the “% Inhibition” value was found to be 4% and the Z score was -0.63.
For `Cc1cnccc1N1CCN(C(=O)NCCCn2ncc3ccccc32)CC1`, in that order: -17% and 2.3.
The matching figures for `CO[C@@H](Cn1c2c(cc(C#N)c1=O)CN(Cc1ccccc1)CC2)C1CCCC1`: -2% and 0.33.
With `CC1(CNC(=O)N2CC[C@H](CO)C2)CCCCCC1`, the “% Inhibition” value is -15% and the Z score is given as 1.93.
Consider `Cc1cc(CNCc2ccco2)c(C)n1-c1cc(S(=O)(=O)N2CCOCC2)ccc1N1CCCC1`, for which the “% Inhibition” value stood at 20% and the Z score is on record as -3.2.
Turning to `COCCCN(Cc1c(C)nn(-c2cccc(F)c2)c1N1CCN(C)CC1)C(=O)NC1CCCCC1`, the “% Inhibition” value is reported as -3% and the Z score stood at 0.36.
For `Cn1c(C(=O)N2CCN(c3ccccn3)CC2)c(N2CCCC2=O)c2cc(F)ccc21`, in that order: 1% and -0.12.
On to `CC1CN(C(=O)CN2CCCCC2Cn2cncn2)CCO1` (stereo not given), for which the “% Inhibition” value is reported as -4% and the Z score is on record as 0.6.
Consider `COc1ccc([C@@H]2CN(C(=O)Nc3nc(C)n(C)n3)CCO2)cc1`, for which the “% Inhibition” value is recorded as -6% and the Z score stood at 1.08.
Turning to `CCc1nc2cc(N3CCCC(C(=O)NC(C)CC)C3)cnc2nc1CC` (stereo not given), the “% Inhibition” value worked out at 0% and the Z score was 0.08.
`CC(=O)N[C@H]1C[C@@H](c2cc(NCCc3ccccc3Cl)nc(C)n2)C1`: the “% Inhibition” value came out at 0% and the Z score is -0.07.
As to `COc1ccc(-n2nc(C)c(CCC(=O)NCc3ccco3)c2Oc2ccccc2F)cc1`, the “% Inhibition” value stood at 12% and the Z score is reported as -1.19.
`Cc1ccc2c(c1)N(C(=O)c1coc(S(=O)(=O)N(C)C)c1)CCC2`: the “% Inhibition” value is reported as -1% and the Z score is listed as 0.13.
As to `Cn1cc(C(=O)NCc2ccc3c(c2)nc(C2CC2)n3C)c(-c2ccoc2)n1`, the “% Inhibition” value was -8% and the Z score was found to be 0.81.
The matching figures for `C#CCNC(=O)NC1CCCC1n1ccnc1` (stereo not given): -2% and 0.25.
For `Cc1cc2c(C)c(C(=O)N3CCCCCC3)oc2c(S(=O)(=O)N2CCCc3ccccc32)c1C`, in that order: -7% and 0.87.
As for `Cn1cnn(CC(=O)NC[C@H]2CCCC2(F)F)c1=O`, the “% Inhibition” value was -9% and the Z score worked out at 1.45.
Turning to `CCc1ccc(-c2n[nH]c(=O)c3c2CCCC3)cc1S(=O)(=O)NC1CCCCC1`, the “% Inhibition” value stood at 0% and the Z score was -0.01.
`CCCN1CCN(Cc2ccc(C)c(F)c2C)[C@H]2CS(=O)(=O)C[C@H]21`: the “% Inhibition” value is -3% and the Z score is 0.41.
In the case of `CCN(CC)C(=O)C1(NCC2CCOCC2)CCCCC1`, the “% Inhibition” value is listed as -5% and the Z score was determined as 0.64.
For `CCC1(CC)C(OC)CC1N(C)Cc1ncc[nH]1` (stereo not given), in that order: -10% and 1.36.
For `Cc1cccc(OCC(=O)N[C@H]2CCCN(c3cc(-c4ccccc4)n[nH]3)C2)c1`, in that order: -24% and 2.38.
Turning to `Cn1cc(S(=O)(=O)Nc2cc(CCc3ccccc3)[nH]n2)cn1`, the “% Inhibition” value is listed as -11% and the Z score is given as 1.44.
Take `CCC1CN(C(=O)c2cc3c(OC)cc(OC)c(OC)c3[nH]2)CC2(CCOC2)O1` (stereo not given): the “% Inhibition” value is reported as 0% and the Z score was 0.05.
In the case of `COCCN1CC[C@H](NC(=O)NCc2nc(C)c(C)s2)C1`, the “% Inhibition” value is on record as 8% and the Z score is -1.19.
As for `COc1ccc(Cl)cc1NCc1ccccc1-c1nnc(-c2ccccc2Cl)o1`, the “% Inhibition” value was -5% and the Z score is recorded as 0.81.
The matching figures for `Cc1ncnc(C)c1C(=O)NC[C@H]1CCCN(C(=O)c2ncoc2C)C1`: -5% and 0.6.
For `Cn1nccc1S(=O)(=O)N1CCC[C@H](c2nnc3ccccn23)C1`, the “% Inhibition” value came to 6% and the Z score was -0.91.
For the molecule `N#Cc1[nH]c(=O)n(Cc2ccccc2)c1NCc1ccccc1`, the “% Inhibition” value is reported as -16% and the Z score amounted to 2.96.
The matching figures for `CCC(CC)c1cc(NC(=O)c2cc(OC)no2)[nH]n1`: -5% and 0.5.
Turning to `Cn1nc(CN(Cc2ccco2)C(=O)Nc2c(F)cccc2F)c2c1CCC2`, the “% Inhibition” value is 8% and the Z score was -1.1.
For `O=C(Nc1ccccc1C(=O)N1CCN(c2ccccc2O)CC1)c1cccs1`, the “% Inhibition” value was found to be 5% and the Z score was -0.98.
In the case of `Cn1nc(CN2CCOCC2)c2c1CCN(S(=O)(=O)c1ccc3c(c1)CCC3)C2`, the “% Inhibition” value is listed as -11% and the Z score stood at 2.04.
Consider `O=C(Cc1ccc(N(Cc2cccc(F)c2)C(=O)C2CCCC2)cc1)NCC1CC1`, for which the “% Inhibition” value is reported as -1% and the Z score amounted to 0.13.
For `CCN1CCC(N(CCc2ccccn2)Cc2n[nH]c(C)c2Cl)CC1`, the “% Inhibition” value is -8% and the Z score is given as 1.11.
On to `Cc1ccc2c(n1)N(C)[C@H](CO)CCN(Cc1ccc(Cl)cc1)C2`, for which the “% Inhibition” value worked out at 7% and the Z score is recorded as -1.14.
For `CCC(=O)N1CCCN(C2CCC2)C[C@H]1c1nc(C)no1`, in that order: -13% and 2.48.
For the molecule `Cc1nc2c(N3CCC[C@@]4(CNC(=O)O4)C3)ncnc2o1`, the “% Inhibition” value was -11% and the Z score is reported as 1.56.
For `C[C@H](CCOC(=O)C[N+]1(C)CCCCC1)CCc1ccccc1`, in that order: 11% and -1.47.
`O=C(Cn1nc(-c2ccc(F)cc2)c2cnc3ccccc3c21)Nc1ccccc1`: the “% Inhibition” value is reported as -14% and the Z score worked out at 1.23.
`CCOC(=O)C(OC(=O)CCNc1ccccc1)C1CCOC1` (stereo not given): the “% Inhibition” value is reported as -9% and the Z score was 1.6.
`CCNC(=O)[C@H](C)NS(=O)(=O)c1cnnn1-c1ccccc1`: the “% Inhibition” value is 23% and the Z score is reported as -2.67.
For `CC(C)NC(=O)Nc1ccc(N(C)C)c(CN(Cc2ccco2)C(=O)CC(C)(C)C)c1`, in that order: -14% and 1.55.
In the case of `Cc1nn(CCNc2nnc(C(C)C)s2)c(C)c1C`, the “% Inhibition” value is given as -24% and the Z score stood at 2.19.
Take `CCN(C(=O)c1cc(C)no1)c1ccc(F)c(F)c1`: the “% Inhibition” value is given as -3% and the Z score is listed as 0.45.
`Cc1nc(NC(=O)N2CCC(F)CC2)nn1C`: the “% Inhibition” value is -4% and the Z score came out at 0.54.
Regarding `CCC(=O)Nc1c(-c2ccccn2)nsc1C(=O)NC1CCC(C)CC1` (stereo not given), the “% Inhibition” value was -12% and the Z score is recorded as 1.16.
The matching figures for `Cc1nnc(C2CCCN2C(=O)N2C(C)CCCC2C)o1` (stereo not given): -11% and 1.72.
Turning to `CCc1onc(C)c1NC(=O)N1CCOC(C)C1C` (stereo not given), the “% Inhibition” value is -14% and the Z score came to 2.24.
The matching figures for `CCc1ccc(CN2C[C@@H]3c4ccc(OC)cc4OC[C@]3(CO)C2)o1`: -17% and 2.
Turning to `CCc1noc(COCC(=O)N2CC(C)(C)c3ccc(Cl)cc32)n1`, the “% Inhibition” value is -12% and the Z score is listed as 1.43.
On to `C[C@]1(O)CCN(C(=O)Cc2ccc(O)cc2)C[C@H]1Cc1ccccc1`, for which the “% Inhibition” value is -8% and the Z score was 1.5.
As for `Cc1nccn1-c1ncc(NC(=O)Cn2cnc3ccccc32)cn1`, the “% Inhibition” value is listed as -4% and the Z score was 0.68.
For the molecule `O=C(c1ccco1)N1CCN(C(=O)c2ccco2)CC1`, the “% Inhibition” value was 10% and the Z score was -1.63.

The values above are taken from ChEMBL document CHEMBL4888484, “Replenishing the malaria drug discovery pipeline: Screening and hit evaluation of the MMV Hit Generation Library 1 (HGL1) against asexual blood stage Plasmodium falciparum ,using a nano luciferase reporter read-out” (2022).
